The target of assay [1] is T1, human OX40 on the cell surface (activated human T cells; HeLa_hOx40_NFkB_Luc1 reporter cells) (human), P43489.
T1 chain: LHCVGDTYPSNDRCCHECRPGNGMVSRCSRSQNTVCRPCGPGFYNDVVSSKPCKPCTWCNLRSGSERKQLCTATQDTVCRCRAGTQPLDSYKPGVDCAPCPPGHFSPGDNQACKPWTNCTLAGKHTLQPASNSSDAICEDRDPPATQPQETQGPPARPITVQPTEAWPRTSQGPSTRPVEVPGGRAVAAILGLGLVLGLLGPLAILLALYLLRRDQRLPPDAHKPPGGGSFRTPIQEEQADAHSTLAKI
Briefly: cell-based or functional assay.

Assay [2] has as its target human fibroblast activation protein (huFAP) on NIH/3T3-huFAP clone 19 cells (human), Q12884. Briefly: flow cytometry, NIH/3T3-huFAP clone 19 cells. For orientation: In flow cytometry, cells or beads pass a laser one at a time.
For assay [3], the target named is T1, human OX40 on the cell surface …. The assay can be described thus: flow cytometry, activated human PBMC gated on CD4+ T cells.

Numbering of substitutions follows the chain as printed.

One may read the EC50 as the midpoint of the concentration-response curve. Lower therefore signals an effect from little substance.

B1: P1AF7217 OX40 (CLC563) x FAP (1G1a_EPKSCS) (4+1) C-terminal crossfab fusion (bispecific antibody, human IgG1, kappa)
heavy 1: [sequence of about 100 residues not given]DVGAFDYWGQGALVTVSSASTKGPSVFPLAPSSKSTSGGTAALGCLVEDYFPEPVTVSWNSGALTSGVHTFPAVLQSSGLYSLSSVVTVPSSSLGTQTYICNVNHKPSNTKVDEKVEPKSCGGGGSGGSGG[sequence of about 100 residues not given]DVGAFDYWGQGALVTVSSASTKGPSVFPLAPSSKSTSGGTAALGCLVEDYFPEPVTVSWNSGALTSGVHTFPAVLQSSGLYSLSSVVTVPSSSLGTQTYICNVNHKPSNTKVDEKV[sequence of human IgG1 Fc with changes not given]GGGGSGGGGSGGGGSGGSGGQVQLVQSGAEVKKPGASVKVSCKASGYTLTDYNMDWVRQAPGQGLEWIGDIYPNTGGTIYNQKFKGRVTMTIDTSTSTVYMELSSLRSEDTAVYYCTRFRGIHYAMDYWGQGTTVTVSSASVAAPSVFIFPPSDEQLKSGTASVVCLLNNFYPREAKVQWKVDNALQSGNSQESVTEQDSKDSTYSLSSTLTLSKADYEKHKVYACEVTHQGLSSPVTKSFNRGEC
heavy 2: [sequence of about 100 residues not given]DVGAFDYWGQGALVTVSSASTKGPSVFPLAPSSKSTSGGTAALGCLVEDYFPEPVTVSWNSGALTSGVHTFPAVLQSSGLYSLSSVVTVPSSSLGTQTYICNVNHKPSNTKVDEKVEPKSCGGGGSGGSGG[sequence of about 100 residues not given]DVGAFDYWGQGALVTVSSASTKGPSVFPLAPSSKSTSGGTAALGCLVEDYFPEPVTVSWNSGALTSGVHTFPAVLQSSGLYSLSSVVTVPSSSLGTQTYICNVNHKPSNTKVDEKVEPKSCDKTHTCPPCPAPEAAGGPSVFLFPPKPKDTLMISRTPEVTCVVVDVSHEDPEVKFNWYVDGVEVHNAKTKPREEQYNSTYRVVSVLTVLHQDWLNGKEYKCKVSNKALGAPIEKTISKAKGQPREPQVCTLPPSRDELTKNQVSLSCAVKGFYPSDIAVEWESNGQPENNYKTTPPVLDSDGSFFLVSKLTVDKSRWQQGNVFSCSVMHEALHNHYTQKSLSLSP
light 1: [sequence of about 100 residues not given][sequence of about 100 residues not given]
light 2: EIVLTQSPATLSLSPGERATLSCRASESVDNYGLSFINWFQQKPGQAPRLLIYGTSNRGSGIPARFSGSGSGTDFTLTISSLEPEDFAVYFCQQSNEVPYTFGGGTKVEIKSSASTKGPSVFPLAPSSKSTSGGTAALGCLVKDYFPEPVTVSWNSGALTSGVHTFPAVLQSSGLYSLSSVVTVPSSSLGTQTYICNVNHKPSNTKVDKKVEPKSCS
In assay [1], B1 showed an EC50 of CD25 upregulation on CD4+ T cells, suboptimal TCR stimulation of human PBMC with NIH/3T3-huFAP cells of 0.002 nM; an EC50 of NFκB activation (luciferase), HeLa hOx40 NFkB Luc1, w/ hu FAP of 0.18 nM; an EC50 of NFκB activation (luciferase), HeLa hOx40 NFkB Luc1, w/o of 0.7 nM; an EC50 of increased TCB mediated cytokine secretion following FAP-OX40 costimulation of primary human PBMCs of 0.058 nM. Besides, the EC50 of suppression of FoxP3 induction (FoxP3 MFI) on TGFβ-exposed CD4 T cells, FAP-coated beads in assay [1] came out at 0.01 nM. The EC50 in assay [2] came out at 1.33 nM. In assay [3], this molecule came in with a half-maximal effective concentration (EC50) of 1.46 nM.

B2: P1AF7205 OX40(CLC563) x FAP (1G1a_EPKSCD) (4+1) C-terminal crossfab fusion (bispecific antibody, human IgG1, kappa)
heavy 1: [sequence of about 100 residues not given]DVGAFDYWGQGALVTVSSASTKGPSVFPLAPSSKSTSGGTAALGCLVEDYFPEPVTVSWNSGALTSGVHTFPAVLQSSGLYSLSSVVTVPSSSLGTQTYICNVNHKPSNTKVDEKVEPKSCGGGGSGGSGG[sequence of about 100 residues not given]DVGAFDYWGQGALVTVSSASTKGPSVFPLAPSSKSTSGGTAALGCLVEDYFPEPVTVSWNSGALTSGVHTFPAVLQSSGLYSLSSVVTVPSSSLGTQTYICNVNHKPSNTKVDEKV[sequence of human IgG1 Fc with changes not given]GGGGSGGGGSGGGGSGGSGGQVQLVQSGAEVKKPGASVKVSCKASGYTLTDYNMDWVRQAPGQGLEWIGDIYPNTGGTIYNQKFKGRVTMTIDTSTSTVYMELSSLRSEDTAVYYCTRFRGIHYAMDYWGQGTTVTVSSASVAAPSVFIFPPSDEQLKSGTASVVCLLNNFYPREAKVQWKVDNALQSGNSQESVTEQDSKDSTYSLSSTLTLSKADYEKHKVYACEVTHQGLSSPVTKSFNRGEC
heavy 2: [sequence of about 100 residues not given]DVGAFDYWGQGALVTVSSASTKGPSVFPLAPSSKSTSGGTAALGCLVEDYFPEPVTVSWNSGALTSGVHTFPAVLQSSGLYSLSSVVTVPSSSLGTQTYICNVNHKPSNTKVDEKVEPKSCGGGGSGGSGG[sequence of about 100 residues not given]DVGAFDYWGQGALVTVSSASTKGPSVFPLAPSSKSTSGGTAALGCLVEDYFPEPVTVSWNSGALTSGVHTFPAVLQSSGLYSLSSVVTVPSSSLGTQTYICNVNHKPSNTKVDEKVEPKSCDKTHTCPPCPAPEAAGGPSVFLFPPKPKDTLMISRTPEVTCVVVDVSHEDPEVKFNWYVDGVEVHNAKTKPREEQYNSTYRVVSVLTVLHQDWLNGKEYKCKVSNKALGAPIEKTISKAKGQPREPQVCTLPPSRDELTKNQVSLSCAVKGFYPSDIAVEWESNGQPENNYKTTPPVLDSDGSFFLVSKLTVDKSRWQQGNVFSCSVMHEALHNHYTQKSLSLSP
light 1: [sequence of about 100 residues not given][sequence of about 100 residues not given]
light 2: B1 light 2 with S217D
B2 had an EC50 in assay [2] of 1.04 nM.

(Values after patent US20230227584A1.)
